According to the supplement of paper PMC12217912:
The other results are listed elsewhere or left out. The full chains were built here from the parent and the listed change. Inactive controls read about 0.05.

B1: TEV protease; numbered along this chain (parent)
chain: MGESLFKGPRDYNPISSSICHLTNESDGHTTSLYGIGFGPFIITNKHLFRRNNGTLVVQSLHGVFKVKDTTTLQQHLVDGRDMIIIRMPKDFPPFPQKLKFREPQREERICLVTTNFQTKSMSSMVSDTSCTFPSGDGIFWKHWIQTKDGQCGSPLVSTRDGFIVGIHSASNFTNTNNYFTSVPKNFMELLTNQEAQQWVSGWRLNADSVLWGGHKVFMVKPEEPFQPVKEATQL

Variants of: B1
Test: raw area under fraction-flipped curve 0-4 h after induction (AUC4h, not background-subtracted), DNA-recorder readout of cleavage of the substrate (dimensionless); higher = more cleavage of the substrate by the protease variant
Details: temperature: 34 °C; time window: 0-4 h after rhamnose induction
Protocol: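 In vivo DNA recorder in E. coli TOP10(DE3) ΔrhaA at 34 °C. Each TEVp single-site mutant (parent TEVp 0) is paired with a single-site variant of the 7-mer TEVs (canonical ENLYFQ|S). The substrate sits between flexible linkers in a Bxb1-sfGFP-TEVs-SsrA fusion, so cleavage stabilises Bxb1 and speeds flipping of a recombination array, read by NGS. The value is the raw area under the fraction-flipped curve over 0-4 h after rhamnose induction (AUC4h), with ≥20 reads per time point. It is not background-subtracted; inactive controls average about 0.047.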
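Note: Bxb1 expression induced with 0.2% (w/v) L-rhamnose at OD600 near 0.5, cultures sampled hourly, flipped fraction per protease–substrate barcode pair counted by paired-end Illumina sequencing.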

Row | Variant | area with substrate ENAYFQS | area with substrate ENCYFQS | area with substrate ENEYFQS | area with substrate ENFYFQS | area with substrate ENGYFQS | area with substrate ENIYFQS | area with substrate ENKYFQS | area with substrate ENQYFQS | area with substrate ENSYFQS | area with substrate ENTYFQS | area with substrate ENVYFQS | area with substrate ENYYFQS | area with substrate ENDYFQS | area with substrate ENHYFQS | area with substrate ENMYFQS | area with substrate ENNYFQS | area with substrate ENPYFQS | area with substrate ENRYFQS | area with substrate ENWYFQS
1 | M122S | 0.0526 | 0.059 | 0.0666 | 0.0619 | 0.061 | 0.113 | 0.0572 | 0.0689 | 0.0609 | 0.0991 | 0.0688 | 0.0753 | – | – | – | – | – | – | –
2 | M122D | 0.0679 | 0.0678 | 0.0737 | 0.0684 | 0.0716 | – | – | 0.0646 | 0.0457 | 0.0524 | 0.0747 | – | 0.0537 | 0.0625 | 0.0877 | 0.057 | 0.0587 | 0.0601 | 0.048
3 | M122G | 0.0743 | – | – | – | – | – | – | – | 0.0664 | 0.0635 | 0.0777 | – | 0.0746 | – | 0.0887 | – | – | – | 0.0635
4 | M122C | 0.0587 | 0.0871 | 0.053 | – | 0.0574 | 0.103 | 0.0695 | 0.065 | 0.0571 | – | – | 0.0428 | – | – | – | 0.0546 | – | 0.0579 | –
5 | I110C | 0.051 | 0.0718 | 0.0585 | 0.078 | – | 0.173 | – | 0.0555 | 0.0633 | 0.0653 | 0.0784 | 0.0626 | 0.0603 | 0.0546 | 0.0836 | 0.0557 | 0.064 | 0.048 | –
6 | C131R | 0.0685 | – | 0.0904 | – | 0.0648 | – | 0.0795 | 0.0593 | – | 0.0682 | 0.0913 | – | – | – | – | – | – | 0.0868 | 0.0554
7 | T129M | 0.0602 | – | – | 0.0571 | – | – | 0.056 | 0.0473 | – | – | – | 0.0738 | 0.0604 | 0.0564 | – | – | 0.0498 | 0.0634 | 0.0597
8 | T129Y | 0.0774 | 0.0647 | – | – | 0.0526 | 0.14 | 0.0785 | 0.0587 | 0.0645 | 0.0583 | 0.0867 | – | – | – | 0.0721 | – | 0.0582 | 0.0558 | –
9 | T129S | 0.06 | 0.0632 | 0.0558 | 0.0616 | 0.0527 | – | 0.0867 | 0.0487 | 0.0605 | 0.0617 | – | 0.0877 | 0.0579 | – | 0.0801 | 0.0696 | 0.0646 | – | –
10 | E107F | 0.0566 | – | – | – | 0.0624 | 0.0855 | – | 0.0644 | 0.0461 | 0.0607 | 0.0629 | 0.0555 | 0.0701 | 0.0525 | – | – | – | 0.0383 | –
11 | I139L | 0.0734 | 0.0725 | 0.0554 | 0.0553 | – | 0.106 | – | 0.0543 | 0.0581 | 0.0635 | 0.0851 | 0.0644 | 0.0491 | 0.0512 | 0.0807 | – | 0.0629 | 0.0538 | –
12 | I139E | 0.0783 | 0.0589 | 0.0655 | 0.0621 | 0.0625 | 0.106 | 0.0787 | – | 0.0589 | – | – | – | 0.0522 | 0.0607 | 0.0909 | – | – | 0.0912 | 0.0111
13 | I139H | 0.0987 | – | 0.0397 | 0.0946 | 0.059 | 0.0797 | – | 0.0608 | 0.0578 | 0.0475 | – | – | 0.058 | – | – | 0.0603 | – | 0.0662 | –
14 | P134I | 0.0657 | – | – | 0.0607 | 0.0637 | 0.095 | 0.0559 | 0.0641 | 0.0556 | 0.0628 | 0.0666 | 0.0368 | 0.0681 | – | – | – | 0.0458 | – | 0.0812
15 | P134S | 0.0692 | 0.0656 | 0.0559 | – | 0.0535 | – | – | 0.0687 | – | 0.0507 | – | – | 0.0632 | 0.0784 | – | 0.0563 | 0.0292 | – | –
16 | S123F | 0.0648 | 0.061 | 0.0583 | 0.0689 | 0.0626 | – | 0.0577 | 0.0567 | 0.0674 | 0.0598 | 0.0755 | – | 0.0547 | – | 0.0712 | 0.0554 | – | 0.0718 | 0.0597
17 | T115D | 0.0796 | 0.177 | 0.0626 | 0.0374 | 0.0587 | – | 0.0675 | 0.0577 | 0.0622 | 0.0708 | 0.0699 | 0.0676 | 0.0514 | 0.0722 | – | 0.0568 | – | – | 0.0499
18 | T115S | 0.0645 | – | 0.0666 | 0.0733 | 0.0568 | 0.142 | – | 0.0601 | – | 0.0605 | 0.0848 | 0.0624 | 0.0617 | 0.068 | 0.0613 | – | 0.0741 | – | –
19 | T115P | 0.0531 | – | – | 0.0507 | – | 0.131 | – | – | 0.0532 | – | – | – | 0.069 | 0.0642 | – | 0.0535 | 0.0888 | – | –
20 | C111R | 0.0645 | 0.0516 | 0.0481 | – | – | – | – | 0.0654 | 0.0742 | – | 0.0957 | – | 0.0533 | – | – | 0.0665 | – | – | –
21 | C111V | 0.0527 | – | 0.0569 | 0.067 | 0.0585 | 0.129 | – | 0.0616 | 0.0661 | 0.0571 | 0.0772 | 0.0827 | 0.0544 | 0.0414 | 0.0693 | 0.0601 | – | 0.041 | –
22 | K120M | 0.0692 | 0.0623 | 0.0692 | – | 0.0443 | 0.117 | – | 0.0605 | 0.0755 | 0.0762 | 0.0891 | – | 0.042 | 0.0886 | – | – | 0.053 | 0.059 | 0.0588
23 | K120R | 0.0477 | 0.0673 | 0.0761 | 0.0588 | 0.0648 | – | 0.0587 | 0.047 | 0.0615 | 0.0663 | 0.09 | – | 0.0595 | – | – | – | 0.0635 | 0.0595 | –
24 | G138D | 0.0522 | – | 0.069 | 0.0592 | – | – | – | – | 0.0688 | – | – | – | 0.075 | – | 0.0426 | 0.039 | – | 0.067 | –
25 | E108L | 0.0362 | 0.0571 | – | 0.0583 | – | 0.0648 | 0.0503 | – | 0.0574 | – | 0.0675 | 0.0546 | 0.0734 | 0.0435 | – | – | – | 0.0548 | –
26 | E108C | 0.0573 | – | 0.0607 | 0.05 | 0.0562 | – | – | 0.0527 | 0.0613 | 0.0558 | 0.069 | – | 0.0439 | 0.0371 | 0.0715 | 0.0604 | – | 0.0616 | –
27 | E108H | 0.0591 | 0.0569 | 0.0585 | 0.0497 | 0.0553 | 0.0729 | 0.0439 | 0.0483 | 0.049 | 0.0541 | 0.0682 | 0.0485 | 0.0391 | 0.0389 | 0.0636 | 0.0415 | 0.0481 | 0.042 | 0.0464
28 | N116R | 0.097 | 0.0393 | – | – | 0.0798 | 0.102 | – | 0.0556 | – | – | 0.0614 | 0.0495 | 0.0348 | – | – | 0.0535 | – | 0.0412 | –
